Measured values taken from PubChem BioAssay AID360 (National Center for Advancing Translational Sciences (NCATS), 2006).
The campaign covered roughly 48,000 compounds. About 550 (1.1%) were called active. Roughly 4% stayed inconclusive and do not appear here. No stated cut-off is given here; in the data, active means potency below about 15 µM; inconclusive means mostly about 16 µM to 33 µM; inactive means weaker than that. The list shows a part of the results.

target: Lysosomal acid glucosylceramidase (Homo sapiens) (UniProt P04062); assay: Glucocerebrosidase; conditions: purified enzyme, resorufin glucoside fluorescence (screen aimed at inhibitors), 20 min;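 further: the screen sought inhibitors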
How it was run: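 Compounds titrated against 0.2 nM normal enzyme, 30 uM resorufin beta-D-glucopyranoside substrate, citrate/phosphate buffer with taurocholate and tween-20, pH 5.9. Reaction ran 20 min at room temperature; fluorescence (Ex 548/Em 600) gave AC50.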
Potency means the concentration at half of the fitted maximal effect.

Sequence of UniProt P04062 (P04062 whole entry, looked up): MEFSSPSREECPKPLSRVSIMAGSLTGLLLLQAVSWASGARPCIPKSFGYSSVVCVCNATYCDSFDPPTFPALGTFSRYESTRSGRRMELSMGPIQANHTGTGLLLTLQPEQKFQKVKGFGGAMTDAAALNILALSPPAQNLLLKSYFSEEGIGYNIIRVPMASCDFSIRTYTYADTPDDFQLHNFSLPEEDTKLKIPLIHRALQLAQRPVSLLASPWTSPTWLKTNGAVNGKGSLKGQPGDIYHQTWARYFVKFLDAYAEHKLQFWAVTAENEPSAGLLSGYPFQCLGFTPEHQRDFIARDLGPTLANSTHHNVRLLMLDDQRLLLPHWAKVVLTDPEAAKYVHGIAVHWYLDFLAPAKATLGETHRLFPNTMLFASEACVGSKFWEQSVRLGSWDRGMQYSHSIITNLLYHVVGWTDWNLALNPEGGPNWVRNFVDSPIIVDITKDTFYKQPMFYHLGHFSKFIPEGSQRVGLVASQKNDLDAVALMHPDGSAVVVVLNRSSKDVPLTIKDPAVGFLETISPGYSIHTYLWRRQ

Potency, inactive:
CCC(CC)C(=O)NCCc1cc2ccc(OC)cc2[nH]c1=O > 76.9 µM
COc1cccc(N2CCN(C3CCCC(C)C3)CC2)c1 (configuration not stated) > 76.9 µM
O=C(CSc1nnc(Cc2ccccc2)o1)NCc1ccco1 > 76.9 µM
Clc1ccc(-c2noc(CN3CCN(c4ccccc4)CC3)n2)cc1 > 76.9 µM
CC(=O)Nc1ccc(S(=O)(=O)N2CCC(NC(=O)c3ccco3)CC2)cc1 > 76.9 µM
Cn1c(SCC(=O)N2CCCc3ccccc32)nnc1-c1ccccc1 > 76.9 µM
COc1cc(NC(=O)c2c(F)c(F)c(F)c(F)c2F)c(OC)cc1Cl > 76.9 µM
CCOC(=O)CC12CN3CN(C1)CC(CC(=O)OCC)(C3)C2=O > 76.9 µM
C=CCSc1nc2c(c(=N)n1CC=C)C1CCCC1S2 (configuration not stated) > 76.9 µM
COc1ccc(Br)cc1CNC(=O)CCN1C(=O)COc2ccccc21 > 76.9 µM
CCOC(=O)C1=C(C)N=C2SCCC(=O)N2C1c1ccc(C(=O)OC)cc1 (configuration not stated) > 76.9 µM
O=C(NCCc1ccncc1)c1ccccc1F > 76.9 µM
Cn1c(SCc2c(Cl)cccc2Cl)nnc1-c1cccs1
CCOc1ccc(S(=O)(=O)N(CC(N)=O)c2ccc(C)cc2)cc1 > 76.9 µM
COc1cc(C(N)=O)ccc1OCc1ccccc1 > 76.9 µM
Cc1occc1-c1nnc(SCC(=O)N2CCCc3ccccc32)n1Cc1ccco1 > 76.9 µM
Cc1cc(C)cc(NC(=O)CSc2nnc(-c3ccccc3)n2N)c1 > 76.9 µM
O=C(Nc1ccc2c(c1)OCO2)c1cc2ncc(Br)cn2n1 > 76.9 µM
CC12C=CC3(CN(Cc4ccccc4)C(=O)C3C1C(=O)NCc1ccco1)O2 (configuration not stated) > 76.9 µM
CC1=Nn2c(nnc2-c2ccccc2)SC1 > 76.9 µM
c1ccc(Cc2nnc3sc(-c4cccs4)nn23)cc1 > 76.9 µM
N#Cc1nc(-c2ccc(OCc3ccccc3)cc2)oc1N1CCC(C(N)=O)CC1 > 76.9 µM
O=C(CCCC(=O)N(CC(=O)NC1CCCCC1)Cc1ccco1)Nc1ccccn1 > 76.9 µM
O=C(NCCc1ccccc1)C1CCCN(C(=O)NC2CCCCC2)C1 (configuration not stated) > 76.9 µM
CCOc1ccc(N2C(=O)CC(N3CCOCC3)C2=O)cc1 (configuration not stated) > 76.9 µM
COc1ccc(S(=O)(=O)N[C@H](C(=O)O)C(C)C)cc1 > 76.9 µM
Cc1ccc(OCCN2C(=O)OC(C)(C)C2(C)O)cc1 (configuration not stated) > 76.9 µM
O=C(CCNS(=O)(=O)c1cccc2nonc12)NC1CCCc2ccccc21 (configuration not stated) > 76.9 µM
Cc1oc(-c2ccccc2F)nc1CN1CCC(C(=O)NC2CC2)CC1 > 76.9 µM
CN(C)S(=O)(=O)N1CCc2ccccc21 > 76.9 µM
COCCN1Cc2cccc(C(=O)NCc3ccc4c(c3)OCO4)c2C1=O > 76.9 µM
Cn1c(CCNC(=O)c2cccs2)nnc1SCC(=O)Nc1nc(-c2ccccc2)cs1 > 76.9 µM
CCN(CC)S(=O)(=O)c1ccc(NC(=O)c2ccccn2)cc1 > 76.9 µM
Cc1cccc(-c2nnc(SCC#N)n2-c2ccccc2)c1 > 76.9 µM
C=Cn1c(N2CCOCC2)nc2c1c(=O)[nH]c(=O)n2C > 76.9 µM
COc1ccc(-c2cn3c(C)c(C(=O)Nc4cccc(C)n4)sc3n2)cc1 > 76.9 µM
CCOC(=O)CCNC(=O)Nc1ccc2nc(C)n(Cc3ccc(Cl)cc3)c(=O)c2c1 > 15.4 µM
CN(C)CCNC(=O)COc1cccc(Cl)c1 > 76.9 µM
CCOC(=O)/C(N=O)=C(\O)C1CCN(C(=O)OCC)CC1 > 76.9 µM
Cc1csc(/C(=N\O)c2csc(C)n2)n1 > 76.9 µM
O=C(Nc1nc2n(n1)C(c1ccccc1)CC(c1ccc(Cl)cc1)N2)c1ccco1 (configuration not stated) > 76.9 µM
COc1ccccc1C1SCCN1S(=O)(=O)c1cccc(C(F)(F)F)c1 (configuration not stated)
N#Cc1c(-c2ccc3c(c2)OCO3)csc1N > 76.9 µM
CCOc1ccc(-n2c(SCC(=O)Nc3ccc(OC)cc3)nc3c(c2=O)SCC3)cc1 > 76.9 µM
COc1ccc(N2C(=O)CC(NCc3ccncc3)C2=O)cc1 (configuration not stated) > 76.9 µM
CC(=O)c1cccc(NC(=O)N2CCc3ccccc3C2)c1 > 76.9 µM
Cc1ccnc(NC(=O)C2CCN(S(=O)(=O)c3cccc4nsnc34)CC2)c1 > 76.9 µM
CCc1c(C)c2ccc(OCC(=O)N(C)C)c(C)c2oc1=O > 76.9 µM
O=C(O)CNCC1COc2ccccc2O1 (configuration not stated) > 76.9 µM
CCCCN(C)C(=O)Cn1cnc2sc(C)cc2c1=O > 76.9 µM
O=C(CSc1nnc(-c2cccnc2)n1Cc1ccco1)c1ccc2ccccc2c1 > 76.9 µM
CCCCOC(=O)c1ccc(NC(=O)c2ccoc2C)cc1 > 76.9 µM
CCCN1CCN(CCCNC(=O)Cn2nc(-c3ccc(C)cc3)ccc2=O)CC1 > 76.9 µM
CC(=O)NCC(=O)N(c1ccccc1)C1(C(=O)NC2CCCCC2)CCCCC1 > 76.9 µM
CCOc1ccc(OCC(=O)Nc2ccc(S(=O)(=O)Nc3cc(C)nc(C)n3)cc2)cc1 > 76.9 µM
CCOC(=O)CNC(=O)CSc1nnc(-c2cccc(C)c2)n1-c1ccc(OC)cc1 > 76.9 µM
COc1ccc(C2=NOC(C(=O)NCc3ccc(F)cc3)C2)cc1 (configuration not stated) > 76.9 µM
COc1ccccc1N1CCN(S(=O)(=O)Cc2ccccc2Cl)CC1 > 76.9 µM
CCCC1CCC(c2nc(-c3cccnc3)no2)CC1 (configuration not stated) > 76.9 µM
Nn1c(SCC(=O)Nc2ccc(F)cc2)nnc1-c1cccnc1 > 76.9 µM
CCCc1ccc(OCc2ccc(C(=O)OC)o2)c(OC)c1 > 76.9 µM
CCCc1nc2ccccc2c(=O)n1/N=C/c1ccc(O)cc1O > 76.9 µM
COc1cc(C2NC(=O)NC(O)(C(F)(F)F)C2C(=O)c2cccs2)ccc1O (configuration not stated) > 76.9 µM
CCOC(=O)N1CCN(C(=O)CSc2ccccc2)CC1 > 76.9 µM
Cc1cccc(N2CCN(C(=O)Cn3ccc4ccccc4c3=O)CC2)c1C > 76.9 µM
CC(=O)C1=C(C)Nc2ncnn2C1c1ccc(Cl)cc1 (configuration not stated) > 76.9 µM
COc1ccc(CN2C(=O)[C@@H]3C(c4ccc(F)cc4)=NO[C@@H]3C2=O)cc1 > 76.9 µM
CCOC(=O)c1[nH]cnc1C(=O)O > 76.9 µM
O=C(CN(C(=O)CCC(=O)Nc1nccs1)c1ccc2c(c1)OCCO2)NCc1ccco1 > 76.9 µM
Cc1ccc(C)n1NC(=O)c1ccccc1Cl > 76.9 µM
O=C(C1=COCCO1)N1CCN(S(=O)(=O)c2cccc(Cl)c2Cl)CC1 > 76.9 µM
Cc1nn(C(=O)c2ccccc2)c2c1C(=O)CC(C)(C)C2 > 76.9 µM
Cc1ccc(C(=O)N(CN2CCCC2=O)c2ccc(F)cc2)cc1 > 76.9 µM
CCOC(=O)C1CCN(C(=O)c2sc3nc(-c4ccc(F)cc4)cn3c2C)CC1
COCCNC(=O)c1ccc2c(=O)n(CCOC)c(=O)[nH]c2c1 > 76.9 µM
COc1ccc(N(CC(=O)Nc2ccc3c(c2)OCCO3)S(C)(=O)=O)c(OC)c1 > 76.9 µM
C=CCOc1ccc(C2C(C(=O)c3ccco3)=C(O)C(=O)N2Cc2cccnc2)cc1 (configuration not stated) > 76.9 µM
Cn1c(C(=O)N2CCCc3ccccc32)cc2sccc21 > 76.9 µM
CC1=C(C(=O)Nc2ccccn2)C(c2cccnc2)n2nnnc2N1 (configuration not stated) > 76.9 µM
CC(C)(C)N(Cc1cc2ccccc2[nH]c1=O)C(=O)C1CCCCC1 > 76.9 µM
COCCNC(=O)C(c1ccncc1)N(C(=O)Cn1nnc2ccccc21)c1ccc(OC)cc1 (configuration not stated) > 76.9 µM
CC(C)Cn1c(N)c(C(=O)CSc2ccc3c(c2)OCCO3)c(=O)n(C)c1=O > 76.9 µM
O=C(C1CCN(C2CC(=O)N(c3ccc(F)cc3)C2=O)CC1)N1CCOCC1 (configuration not stated) > 76.9 µM
Cc1ccc(OCC(=O)Nc2ccc(-c3nc4ncccc4o3)cc2)c(C)c1 > 76.9 µM
CCC(=O)Nc1ccc2c(c1)nc1n2CCSC1 > 76.9 µM
COc1ccc(NS(=O)(=O)c2ccc3c(c2)CCC(=O)N3)c(OC)c1 > 76.9 µM
O=C(CSc1nnnn1C1CCCC1)N1CCCc2ccccc21 > 76.9 µM
O=C(CCSCCC(=O)N1CCCC1)N1CCCC1 > 76.9 µM
O=C(Nc1ccc(-c2nnc(-c3ccccc3)o2)cc1)C1CCCO1 (configuration not stated) > 76.9 µM
COc1ccc(C2C(C(=O)O)c3ccccc3C(=O)N2C)cc1Br (configuration not stated) > 76.9 µM
COc1cccc(-c2nn(-c3ccccc3)cc2CO)c1 > 76.9 µM
CCOc1cc(-c2cc(-c3ccc(N)cc3)nc(N)c2C#N)ccc1O > 76.9 µM
